For 31 molecules, binding signal results are on record in article PMC9911399, “Two distinct binding modes provide the RNA-binding protein RbFox with extraordinary sequence specificity”.

Residue numbers refer to the chain shown, from its start. Some of the results follow.

To fix the notation:
T1: RBFOX1 RRM RbFoxmut (Fox-RRM*) (Homo sapiens, UniProt Q9NWB1 109-208, R118D;E147R;N151S;E152T)
T1 sequence: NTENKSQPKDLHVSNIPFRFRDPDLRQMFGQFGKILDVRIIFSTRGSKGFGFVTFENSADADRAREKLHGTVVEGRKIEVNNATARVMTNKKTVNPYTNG

B1: GGAUAGU (DNA:RNA)
RNA: GGGAGACCGGAAUUCAGAUUGUCCGGAUAGUUUAAAUCCCGUCGUAGCCACCA
DNA 1: CAATCTGAATTCCGGTCTCCC
DNA 2: TGGTGGCTACGACGGGATT
B2: GAAAGCG (DNA:RNA)
RNA: B1 RNA with G26A, U28A, A29G, G30C, U31G
DNA 1: CAATCTGAATTCCGGTCTCCC
DNA 2: TGGTGGCTACGACGGGATT
B3: CCAGCGA (DNA:RNA)
RNA: B1 RNA with G25C, G26C, U28G, A29C, U31A
DNA 1: CAATCTGAATTCCGGTCTCCC
DNA 2: TGGTGGCTACGACGGGATT
B4: UAGCCUA (DNA:RNA)
RNA: GGGAGACCGGAAUUCAGAUUGUCCUAGCCUAUUAAAUCCCGUCGUAGCCACCA
DNA 1: CAATCTGAATTCCGGTCTCCC
DNA 2: TGGTGGCTACGACGGGATT
B5: CAUUCAG (DNA:RNA)
RNA: B4 RNA with U25C, G27U, C28U, U30A, A31G
DNA 1: CAATCTGAATTCCGGTCTCCC
DNA 2: TGGTGGCTACGACGGGATT
B6: GAAGUGC (DNA:RNA)
RNA: B1 RNA with G26A, U28G, A29U, U31C
DNA 1: CAATCTGAATTCCGGTCTCCC
DNA 2: TGGTGGCTACGACGGGATT
B7: CAAAAUU (DNA:RNA)
RNA: B1 RNA with G25C, G26A, U28A, G30U
DNA 1: CAATCTGAATTCCGGTCTCCC
DNA 2: TGGTGGCTACGACGGGATT
B8: AUCCAUU (DNA:RNA)
RNA: B1 RNA with G25A, G26U, A27C, U28C, G30U
DNA 1: CAATCTGAATTCCGGTCTCCC
DNA 2: TGGTGGCTACGACGGGATT
B9: ACCCAUA (DNA:RNA)
RNA: B4 RNA with U25A, A26C, G27C, C29A
DNA 1: CAATCTGAATTCCGGTCTCCC
DNA 2: TGGTGGCTACGACGGGATT
B10: CAUUACA (DNA:RNA)
RNA: B1 RNA with G25C, G26A, A27U, G30C, U31A
DNA 1: CAATCTGAATTCCGGTCTCCC
DNA 2: TGGTGGCTACGACGGGATT
B11: CAAUCGG (DNA:RNA)
RNA: B1 RNA with G25C, G26A, A29C, U31G
DNA 1: CAATCTGAATTCCGGTCTCCC
DNA 2: TGGTGGCTACGACGGGATT
B12: CUGCUGG (DNA:RNA)
RNA: B4 RNA with U25C, A26U, C29U, U30G, A31G
DNA 1: CAATCTGAATTCCGGTCTCCC
DNA 2: TGGTGGCTACGACGGGATT
B13: UUUCUUG (DNA:RNA)
RNA: B4 RNA with A26U, G27U, C29U, A31G
DNA 1: CAATCTGAATTCCGGTCTCCC
DNA 2: TGGTGGCTACGACGGGATT
B14: GGGCACG (DNA:RNA)
RNA: B1 RNA with A27G, U28C, G30C, U31G
DNA 1: CAATCTGAATTCCGGTCTCCC
DNA 2: TGGTGGCTACGACGGGATT
B15: CAAAGCG (DNA:RNA)
RNA: B1 RNA with G25C, G26A, U28A, A29G, G30C, U31G
DNA 1: CAATCTGAATTCCGGTCTCCC
DNA 2: TGGTGGCTACGACGGGATT
B16: GGACAGU (DNA:RNA)
RNA: B1 RNA with U28C
DNA 1: CAATCTGAATTCCGGTCTCCC
DNA 2: TGGTGGCTACGACGGGATT
B17: GAUACGA (DNA:RNA)
RNA: B4 RNA with U25G, G27U, C28A, U30G
DNA 1: CAATCTGAATTCCGGTCTCCC
DNA 2: TGGTGGCTACGACGGGATT
B18: CGAGUAG (DNA:RNA)
RNA: B1 RNA with G25C, U28G, A29U, G30A, U31G
DNA 1: CAATCTGAATTCCGGTCTCCC
DNA 2: TGGTGGCTACGACGGGATT
B19: AUAGACU (DNA:RNA)
RNA: B1 RNA with G25A, G26U, U28G, G30C
DNA 1: CAATCTGAATTCCGGTCTCCC
DNA 2: TGGTGGCTACGACGGGATT
B20: AUUCACA (DNA:RNA)
RNA: B4 RNA with U25A, A26U, G27U, C29A, U30C
DNA 1: CAATCTGAATTCCGGTCTCCC
DNA 2: TGGTGGCTACGACGGGATT
B21: CGUCUUC (DNA:RNA)
RNA: B4 RNA with U25C, A26G, G27U, C29U, A31C
DNA 1: CAATCTGAATTCCGGTCTCCC
DNA 2: TGGTGGCTACGACGGGATT
B22: CUACGCA (DNA:RNA)
RNA: B4 RNA with U25C, A26U, G27A, C29G, U30C
DNA 1: CAATCTGAATTCCGGTCTCCC
DNA 2: TGGTGGCTACGACGGGATT
B23: GGUGAAC (DNA:RNA)
RNA: B1 RNA with A27U, U28G, G30A, U31C
DNA 1: CAATCTGAATTCCGGTCTCCC
DNA 2: TGGTGGCTACGACGGGATT
B24: GUUCGGG (DNA:RNA)
RNA: B1 RNA with G26U, A27U, U28C, A29G, U31G
DNA 1: CAATCTGAATTCCGGTCTCCC
DNA 2: TGGTGGCTACGACGGGATT
B25: UAAACUU (DNA:RNA)
RNA: B4 RNA with G27A, C28A, A31U
DNA 1: CAATCTGAATTCCGGTCTCCC
DNA 2: TGGTGGCTACGACGGGATT
B26: UCAUUUC (DNA:RNA)
RNA: B1 RNA with G25U, G26C, A29U, G30U, U31C
DNA 1: CAATCTGAATTCCGGTCTCCC
DNA 2: TGGTGGCTACGACGGGATT
B27: CACACUU (DNA:RNA)
RNA: B4 RNA with U25C, G27C, C28A, A31U
DNA 1: CAATCTGAATTCCGGTCTCCC
DNA 2: TGGTGGCTACGACGGGATT
B28: CAGUGAG (DNA:RNA)
RNA: B4 RNA with U25C, C28U, C29G, U30A, A31G
DNA 1: CAATCTGAATTCCGGTCTCCC
DNA 2: TGGTGGCTACGACGGGATT
B29: UCAGUUU (DNA:RNA)
RNA: B1 RNA with G25U, G26C, U28G, A29U, G30U
DNA 1: CAATCTGAATTCCGGTCTCCC
DNA 2: TGGTGGCTACGACGGGATT
B30: ACGGAUU (DNA:RNA)
RNA: B1 RNA with G25A, G26C, A27G, U28G, G30U
DNA 1: CAATCTGAATTCCGGTCTCCC
DNA 2: TGGTGGCTACGACGGGATT
B31: AUCCUUC (DNA:RNA)
RNA: B4 RNA with U25A, A26U, G27C, C29U, A31C
DNA 1: CAATCTGAATTCCGGTCTCCC
DNA 2: TGGTGGCTACGACGGGATT

This assay concerns the target T1, RBFOX1 RRM RbFoxmut (Fox-RRM*). Briefly: EMSA; HiTS-Eq, 1 nM pool, 10 min; buffer printed only for the single-RNA assays: 10 mM Tris pH 7.5, 150 mM NaCl, 3.4 mM EDTA, 0.001% NP-40, 30 C. The conditions noted are these: tags: His6 N-terminal (pET28a); label: 5' 32P. A digest of the protocol: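 These values rest on relative association constants, computed from read-count changes of each RNA species versus the control reaction and normalised to the cognate motif. Reads came from free RNA recovered by 8% native PAGE after purified RbFox RRM (wild type or mutant) at increasing concentrations was equilibrated for 10 min in 50 µL with 1 nM of a 5′-radiolabelled pool with 7 randomized nucleotides and DNA-annealed flanks.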
(A gel shift assay detects complexes by their altered migration in electrophoresis.)
Consider B1, for which the binding signal was 0.158 KA relative to UGCAUGU.

Regarding B2, the binding signal is 0.0815 KA relative to UGCAUGU.

In the case of B3, the binding signal is 0.0745 KA relative to UGCAUGU.

In the case of B4, the binding signal is 0.0899 KA relative to UGCAUGU.

For the molecule B5, the binding signal was 0.141 KA relative to UGCAUGU.

In the case of B6, the binding signal was 0.096 KA relative to UGCAUGU.

As for B7, the binding signal was 0.0788 KA relative to UGCAUGU.

With B8, the binding signal was 0.0835 KA relative to UGCAUGU.

Take B9: the binding signal was 0.0832 KA relative to UGCAUGU.

As for B10, the binding signal is 0.158 KA relative to UGCAUGU.

As to B11, the binding signal was 0.0571 KA relative to UGCAUGU.

B12: the binding signal was 0.114 KA relative to UGCAUGU.

For the molecule B13, the binding signal is 0.0889 KA relative to UGCAUGU.

B14: the binding signal was 0.249 KA relative to UGCAUGU.

For the molecule B15, the binding signal is 0.0929 KA relative to UGCAUGU.

For the molecule B16, the binding signal was 0.0929 KA relative to UGCAUGU.

With B17, the binding signal is 0.0786 KA relative to UGCAUGU.

On to B18, for which the binding signal is 0.154 KA relative to UGCAUGU.

Take B19: the binding signal was 0.0784 KA relative to UGCAUGU.

Turning to B20, the binding signal was 0.117 KA relative to UGCAUGU.

In the case of B21, the binding signal is 0.173 KA relative to UGCAUGU.

For B22, the binding signal was 0.149 KA relative to UGCAUGU.

For the molecule B23, the binding signal is 0.0899 KA relative to UGCAUGU.

For the molecule B24, the binding signal was 0.0874 KA relative to UGCAUGU.

For the molecule B25, the binding signal is 0.0599 KA relative to UGCAUGU.

In the case of B26, the binding signal was 0.0773 KA relative to UGCAUGU.

Regarding B27, the binding signal is 0.0845 KA relative to UGCAUGU.

Consider B28, for which the binding signal is 0.139 KA relative to UGCAUGU.

On to B29, for which the binding signal was 0.0841 KA relative to UGCAUGU.

On to B30, for which the binding signal is 0.0816 KA relative to UGCAUGU.

Consider B31, for which the binding signal was 0.095 KA relative to UGCAUGU.
